Patent US7232660 (IMMUNEX, dated 2007)

Key:
Assay in all cases: cell-based or functional assay
[1] = target: T1, murine CD30-L, full length, membrane-bound (murine, UniProt P32972 1-239)
T1 sequence: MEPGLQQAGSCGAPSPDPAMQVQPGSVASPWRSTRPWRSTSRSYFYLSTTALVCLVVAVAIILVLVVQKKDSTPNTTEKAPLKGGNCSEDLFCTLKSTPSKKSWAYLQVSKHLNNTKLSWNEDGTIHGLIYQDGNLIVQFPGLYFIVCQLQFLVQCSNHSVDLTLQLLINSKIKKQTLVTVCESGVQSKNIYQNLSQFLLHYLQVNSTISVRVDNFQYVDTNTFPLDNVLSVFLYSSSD

[2] = target: T2, human CD30-L, full length, membrane-bound (human, UniProt P32971 1-234)
T2 sequence: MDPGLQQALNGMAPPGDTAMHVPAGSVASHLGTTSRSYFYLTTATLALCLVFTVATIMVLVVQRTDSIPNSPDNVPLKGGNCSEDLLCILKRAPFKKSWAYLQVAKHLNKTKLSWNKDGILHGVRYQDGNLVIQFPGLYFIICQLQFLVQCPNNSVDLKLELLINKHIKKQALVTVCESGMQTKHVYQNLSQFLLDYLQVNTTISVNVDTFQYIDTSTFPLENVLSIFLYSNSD

[3] = target: anti-CD30 monoclonal antibody M44
[4] = target: anti-CD30 monoclonal antibody M67

- blocking of enhanced proliferation of HDLM-2 and L-540 cells [1]: 50 fold excess
- blocking of enhanced proliferation of HDLM-2 and L-540 cells [2]: 50 fold excess
- blocking of enhanced proliferation of HDLM-2 and L-540 cells [3]: 50 fold excess
- blocking of enhanced proliferation of HDLM-2 and L-540 cells [4]: 50 fold excess
B1: soluble human CD30/Fc fusion protein (Fc fusion)
chain: FPQDRPFEDTCHGNPSHYYDKAVRRCCYRCPMGLFPTQQCPQRPTDCRKQCEPDYYLDEADRCTACVTCSRDDLVEKTPCAWNSSRVCECRPGMFCSTSAVNSCARCFFHSVCPAGMIVKFPGTAQKNTVCEPASPGVSPACASPENCKEPSSGTIPQAKPTPVSPATSSASTMPVRGGTRLAQEAASKLTRAPDSPSSVGRPSSDPGLSPTQPCPEGSGDCRKQCEPDYYLDEAGRCTACVSCSRDDLVEKTPCAWNSSRTCECRPGMICATSATNSCARCVPYPICAGETVTKPQDMAEKDTTFEAPPLGTQPDCNPTPENGEAPASTSPTQSLLVDSQASKTLPIPTSAPVALSSTGK[not shown - human IgG1 Fc]
